Assay results reported in PubChem BioAssay AID504333 (National Center for Advancing Translational Sciences (NCATS), 2011).
Screen size: about 360,000 compounds; about 16,000 (4.4%) were called active. The inconclusive results got no clear call from the source; some entries with a clear call stand among them for comparison. Calls follow the shape of the dose curve; as a rule, active = well fitted inhibition curve with a large enough effect; inconclusive = small, poorly fitted or top-dose-only effect; inactive = no such curve, though single readings can be large or run the other way. Potencies beside an inconclusive call are fits to weak or partial responses and may not hold up.
% is scaled to controls: 0 for no effect and ±100 for the full control effect; potency is read from the fitted curve at half-maximal effect; tags tell the direction and shape of the fitted curve.
Also: nearly all actives have a fitted effect of over 60% in size.

These compounds were tested against Bromodomain adjacent to zinc finger domain protein 2B (Homo sapiens) (UniProt Q9UIF8) (assay: qHTS Assay for Inhibitors of BAZ2B). Conditions: AlphaScreen BAZ2B-H3K14Ac peptide displacement; activity change, negative = inhibition: at 114 µM (top of the series).
UniProt Q9UIF8, sequence (Q9UIF8 whole entry, looked up, the tested form may be a part): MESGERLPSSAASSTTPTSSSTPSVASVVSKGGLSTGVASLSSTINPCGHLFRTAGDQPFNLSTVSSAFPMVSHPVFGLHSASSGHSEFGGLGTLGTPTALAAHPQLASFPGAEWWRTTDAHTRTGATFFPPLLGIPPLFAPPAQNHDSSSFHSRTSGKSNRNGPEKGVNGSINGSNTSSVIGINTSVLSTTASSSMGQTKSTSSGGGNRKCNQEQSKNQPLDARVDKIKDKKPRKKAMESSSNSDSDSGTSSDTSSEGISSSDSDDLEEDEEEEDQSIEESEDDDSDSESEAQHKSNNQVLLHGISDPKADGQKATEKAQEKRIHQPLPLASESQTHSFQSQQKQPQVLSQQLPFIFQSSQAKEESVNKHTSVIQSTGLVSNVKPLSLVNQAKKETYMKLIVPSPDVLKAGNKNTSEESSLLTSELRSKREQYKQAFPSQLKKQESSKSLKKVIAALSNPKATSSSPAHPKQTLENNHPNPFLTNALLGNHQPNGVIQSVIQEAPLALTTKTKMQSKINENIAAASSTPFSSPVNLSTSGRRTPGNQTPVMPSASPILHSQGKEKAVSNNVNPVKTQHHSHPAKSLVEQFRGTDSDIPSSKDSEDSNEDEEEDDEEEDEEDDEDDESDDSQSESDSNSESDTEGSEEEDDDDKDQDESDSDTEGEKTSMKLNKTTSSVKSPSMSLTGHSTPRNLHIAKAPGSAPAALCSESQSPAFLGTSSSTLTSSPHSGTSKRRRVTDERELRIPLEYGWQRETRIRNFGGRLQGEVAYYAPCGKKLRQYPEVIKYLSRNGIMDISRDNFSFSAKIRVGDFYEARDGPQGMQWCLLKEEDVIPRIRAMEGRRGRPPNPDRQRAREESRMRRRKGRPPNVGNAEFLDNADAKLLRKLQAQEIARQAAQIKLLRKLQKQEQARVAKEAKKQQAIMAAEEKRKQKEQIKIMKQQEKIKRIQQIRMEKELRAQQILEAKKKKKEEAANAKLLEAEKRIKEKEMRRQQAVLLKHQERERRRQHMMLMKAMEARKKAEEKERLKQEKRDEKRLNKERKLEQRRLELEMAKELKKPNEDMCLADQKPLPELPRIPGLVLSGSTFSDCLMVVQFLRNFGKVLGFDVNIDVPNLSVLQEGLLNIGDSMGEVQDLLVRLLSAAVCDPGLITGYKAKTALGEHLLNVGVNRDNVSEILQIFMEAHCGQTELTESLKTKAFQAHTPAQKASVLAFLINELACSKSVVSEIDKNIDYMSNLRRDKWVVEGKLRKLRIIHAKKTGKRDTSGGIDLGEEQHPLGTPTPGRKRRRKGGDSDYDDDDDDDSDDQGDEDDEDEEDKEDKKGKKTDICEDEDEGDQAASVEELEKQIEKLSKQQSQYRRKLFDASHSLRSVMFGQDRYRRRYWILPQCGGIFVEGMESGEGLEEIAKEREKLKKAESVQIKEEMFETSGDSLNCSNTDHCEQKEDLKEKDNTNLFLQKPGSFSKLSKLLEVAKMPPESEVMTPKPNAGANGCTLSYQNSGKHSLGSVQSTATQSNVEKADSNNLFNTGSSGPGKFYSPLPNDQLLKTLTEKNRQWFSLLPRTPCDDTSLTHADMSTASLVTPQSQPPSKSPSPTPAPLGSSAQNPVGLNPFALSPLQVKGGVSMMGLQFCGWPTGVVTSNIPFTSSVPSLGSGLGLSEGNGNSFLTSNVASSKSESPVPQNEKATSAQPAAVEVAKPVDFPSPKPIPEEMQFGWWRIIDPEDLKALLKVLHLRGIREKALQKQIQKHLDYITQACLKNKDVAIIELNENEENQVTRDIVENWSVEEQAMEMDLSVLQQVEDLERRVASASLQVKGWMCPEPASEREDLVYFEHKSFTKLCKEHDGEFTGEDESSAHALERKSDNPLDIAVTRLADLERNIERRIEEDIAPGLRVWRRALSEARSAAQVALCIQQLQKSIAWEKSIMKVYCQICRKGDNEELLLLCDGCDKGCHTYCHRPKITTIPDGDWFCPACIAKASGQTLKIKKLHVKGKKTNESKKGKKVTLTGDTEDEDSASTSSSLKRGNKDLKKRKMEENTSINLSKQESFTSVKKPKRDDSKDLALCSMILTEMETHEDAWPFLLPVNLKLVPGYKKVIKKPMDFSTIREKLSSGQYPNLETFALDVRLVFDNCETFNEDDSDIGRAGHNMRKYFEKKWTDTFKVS
Method in brief: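 Compounds, titrated to a top concentration of 110 uM, were incubated 30 min at room temperature with preformed BAZ2B/acetyl-K14 H3 peptide complex (50 nM each). Proximity signal was measured by AlphaScreen after 20 min with beads.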
For `Cn1cnnc1SC1CCCCC1NS(=O)(=O)c1ccc(Cl)cc1` (stereo not given), the Potency was inconclusive: 79.4 µM [inhibitor, single point].
With `O=C(N/N=C/c1ccccc1O)C(=O)N1CCCCCC1` the Potency was active: 79.4 µM.
In the case of `COc1cccc(NC(=O)COC(=O)c2ccccc2C(=O)N2CCN(c3ccccc3)CC2)c1`, the Potency is reported as inconclusive: 79.4 µM [inhibitor, single point].
`CCN(CC)S(=O)(=O)c1cccc(-c2n[nH]c(=S)n2/N=C/c2ccc(OC(F)F)cc2)c1` was tested, and the Potency was inconclusive: 39.8 µM [inhibitor, full curve].
`CCOc1ccc(N(CC)S(=O)(=O)N2CCCC(C(=O)NCc3ccc(Cl)cc3)C2)cc1` (stereo not given) was tested, and the “activity change, negative = inhibition” value was inactive: -7.7%.
In the case of `COc1ccc(C2N(Cc3ccccc3)CCN2Cc2ccccc2)cc1[N+](=O)[O-]`, the Potency is reported as inconclusive: 70.8 µM [inhibitor, single point].
In the case of `COc1ccc(CSc2nnc(Cc3sc(-c4ccccc4)nc3-c3ccccc3)o2)cc1`, the “activity change, negative = inhibition” value is reported as inactive: 4.81%.
`O=C(CCc1ccccc1)Nc1nccs1` was tested, and the “activity change, negative = inhibition” value was inactive: 5.33%.
With `CCn1cc(C(=O)O)c(=O)c2cc(F)c(N3CCN(C(=S)NC(=O)c4cc(OC)cc(OC)c4)CC3)cc21` the Potency was inconclusive: 50.1 µM [inhibitor, partial curve].
In the case of `CC(C)(C)c1cc(C(=O)O)n[nH]1`, the Potency is reported as inconclusive: 89.1 µM [inhibitor, single point].
In the case of `CC(C)(C)c1nc(SCC(=O)c2ccccc2)c2ccccc2n1`, the “activity change, negative = inhibition” value is reported as inactive: 56.2%.
With `O=C(/C=C/c1ccc[nH]1)c1ccccc1` the Potency was inconclusive: 44.7 µM [inhibitor, partial curve].
`Cc1cc(C(=O)CN2C(=O)NC3(CCCCC3)C2=O)c(C)n1-c1ccc2c(c1)OCO2` was tested, and the Potency was inconclusive: 56.2 µM [inhibitor, single point].
`Cc1ccc(CNC(=O)c2oc3ccc(S(=O)(=O)N4CCC(C)CC4)cc3c2C)cc1` was tested, and the “activity change, negative = inhibition” value was inactive: 4.28%.
In the case of `Cc1nc2cc3c(cc2c(C)c1C(=O)OC(C)C)OCO3`, the Potency is reported as inconclusive: 89.1 µM [inhibitor, single point].
In the case of `O[C@@H](CNC[C@H](O)c1ccccc1)c1ccccc1`, the Potency is reported as inconclusive: 79.4 µM [inhibitor, single point].
`CCn1c(SCC(=O)c2ccc(O)c(O)c2)nnc1-c1ccc(C)cc1` was tested, and the Potency was inconclusive: 79.4 µM [inhibitor, single point].
With `Cc1oc(-c2ccc(F)cc2)cc1-c1nn2c(-c3ccoc3C)nnc2s1` the Potency was active: 35.5 µM.
With `O=C(CSc1nnc(SCc2cccc3ccccc23)s1)Nc1ccc(C(=O)O)cc1` the Potency was inconclusive: 39.8 µM [inhibitor, partial curve].
In the case of `Cc1ccc(NC2CCCN(C(=O)c3cn(C)c4ccccc34)C2)cc1C` (stereo not given), the Potency is reported as inconclusive: 50.1 µM [inhibitor, partial curve].
With `CCCCSc1nnc2c(n1)OC(C(=O)c1ccccc1)Nc1ccccc1-2` (stereo not given) the Potency was inconclusive: 79.4 µM [inhibitor, single point].
In the case of `COc1cc2nc(Nc3ccc(C)c(Cl)c3)nc(N)c2cc1OC`, the Potency is reported as inconclusive: 44.7 µM [inhibitor, partial curve].
With `O=C(c1coc(=O)c(Br)c1)N1CCCc2ccccc21` the Potency was active: 22.4 µM.
`C/C=C(\C)C(=O)N[C@@H](C)CN1C2=NC[C@H](C(C)C)N2C[C@H]1Cc1ccc(OC)cc1` was tested, and the Potency was inconclusive: 89.1 µM [inhibitor, single point].
For `O=C(Nc1ccc2ccccc2c1)c1ccc(Cl)cc1Cl`, the “activity change, negative = inhibition” value was inactive: 1.49%.
`COC(=O)C(Cc1cnc(Cl)s1)(C(=O)OC)c1ccc([N+](=O)[O-])cc1[N+](=O)[O-]` was tested, and the Potency was inconclusive: 89.1 µM [inhibitor, single point].
`COc1ccc(OC)c(CCNC(=O)c2ccccc2NC(=O)C2=C(C)OCCS2)c1` was tested, and the Potency was inconclusive: 44.7 µM [inhibitor, partial curve].
`COc1ccc(NC(=O)C2=C(C)C(=O)OC23CCN(C(C)C)CC3)cc1Cl` was tested, and the Potency was inconclusive: 79.4 µM [inhibitor, single point].
With `Cc1cccc(NNC(N)=S)c1` the Potency was inconclusive: 100 µM [inhibitor, partial curve].
For `COc1cc(-c2nc3cc(C)ccn3c2NC2CCCCC2)ccc1-c1ccc(C(C)=O)cc1`, the Potency was inconclusive: 79.4 µM [inhibitor, single point].
With `CCCN(CCC)CC(C)(C)NS(=O)(=O)c1ccc(Cl)cc1` the Potency was inconclusive: 79.4 µM [inhibitor, single point].
For `O=C1NC(=O)/C(=C\c2ccc(Cl)nc2)S1`, the Potency was inconclusive: 89.1 µM [inhibitor, single point].
In the case of `CCn1c(SCC(=O)Nc2nc3c(s2)CCCC3)nnc1-c1ccccc1`, the Potency is reported as inconclusive: 89.1 µM [inhibitor, single point].
`Cc1nc(C)n(C)c(=O)c1-c1ccccc1` was tested, and the “activity change, negative = inhibition” value was inactive: 0.459%.
`COC(=O)Nc1ccc(S(=O)(=O)N(CCO)CC(F)(F)C(F)F)cc1` was tested, and the “activity change, negative = inhibition” value was inactive: -4.11%.
With `CN1/C(=C/C2CC(=O)N(c3ccc([N+](=O)[O-])cc3)C2=O)C(C)(C)c2ccccc21` (stereo not given) the Potency was inconclusive: 70.8 µM [inhibitor, single point].
For `Cc1ccc(S(=O)(=O)NC(=O)c2ccc(-c3ccc(C)c4ccccc34)o2)cc1`, the Potency was inconclusive: 70.8 µM [inhibitor, single point].
`O=C(NCCc1c[nH]c2ccccc12)OCCCCOC(=O)NCCc1c[nH]c2ccccc12` was tested, and the Potency was inconclusive: 39.8 µM [inhibitor, partial curve].
With `Cc1cc(C)cc(C(=O)Nc2c(C(=O)Nc3ccccc3F)oc3ccccc23)c1` the “activity change, negative = inhibition” value was inactive: -6.49%.
For `COC(=O)c1cn(NC(=O)c2cnccn2)c(=O)c2ccccc12`, the Potency was active: 7.08 µM.
In the case of `COCCn1c(-c2ccc(OC)cc2)cnc1SCC(=O)Nc1cccc2ccccc12`, the Potency is reported as active: 17.8 µM.
In the case of `O=[N+]([O-])c1ccc(-c2nnc(S)n2-c2ccccc2)cc1`, the “activity change, negative = inhibition” value is reported as inactive: 0.471%.
For `COc1ccc(CNC(=O)Nc2ccc(OC)cc2)cc1`, the “activity change, negative = inhibition” value was inactive: -4.48%.
With `COc1cc(C(=O)N2CCN(Cc3ccccc3C(F)(F)F)CC2)cc(OC)c1OC` the Potency was active: 31.6 µM.
`NC(=O)NC(=O)COC(=O)c1sc2ccccc2c1Cl` was tested, and the “activity change, negative = inhibition” value was inactive: 1.52%.
